Test results: the supplement of paper PMC3334620
Over roughly 33,000 sequences, “E-score (-0.5 to 0.5)” has its median near -0.01; the highest 2% begin near 0.26. The list shows a part of the results.

These sequences were tested against Ste12 (UniProt P13574) (assay: PBM E-score (8-mer binding enrichment) (E-score (-0.5 to 0.5)); higher = stronger / more preferred TF binding; most listed sequences are background and not binding sites). Details: protein concentration: 200 nM; construct: GST-DNA-binding domain.
In short: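 Universal all-10-mer Agilent arrays, fresh or stripped once, were converted to double-stranded form by primer extension. GST-tagged yeast transcription factors from PURExpress in vitro transcription/translation, full-length or DNA-binding domain only, were applied at about 100-200 nM and detected with fluorescent anti-GST. After masliner normalisation, the Universal PBM Analysis Suite scored each ungapped eight-base word together with its reverse complement by E-score.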

Sequence | PBM E-score
CATTTTTA | 0.0631
AGCTGCTA | -0.169
CACTAATC | -0.0304
GCTACGAC | -0.138
CACTTCTG | -0.194
TAGAGCCA | -0.0552
CATGAGTC | 0.065
AATGAATC | 0.16
CATCCATC | -0.154
GCGTCGAC | -0.0443
GTTCTTGA | -0.0164
ATTAGTAA | 0.233
ATCGTTCG | -0.00358
GAGCCCTA | -0.0896
CACGAATC | 0.195
CGTATACA | 0.306
CCCTTACA | 0.00527
CCGAGTGC | 0.0654
AATCCTGA | 0.105
CATGTTCA | -0.175
TGCTTTAA | 0.199
GACGTTCA | -0.218
GCGGCCCA | 0.151
CTATTCCC | -0.026
ATTGGGAA | 0.0116

Sequence | PBM E-score
GGAAAACC | 0.0776
GCCCGTCA | -0.179
CTACATTC | -0.0959
CTCGTCTC | -0.0177
ACAAGGAC | -0.129
CGTTATTA | 0.0994
ACGTACGC | -0.149
CAAGCATC | -0.0619
GTAAGTTA | -0.1
ATCTGGTA | 0.0775
AGACCTCC | -0.195
TATATATA | 0.206
ATGCATGG | 0.186
AGGGAATA | 0.121
AGAACAGA | -0.0259
CTTTTGAC | 0.0265
CGACCAAG | -0.244
TGGAAAAA | 0.302
AGTACTAG | -0.0485
CATGCTCC | -0.254
AGTGCGGG | -0.212
ATTCCAGA | 0.113
CATGGGGA | -0.0358
GATGTCAA | 0.00597
TATCCGCA | 0.135

Sequence | PBM E-score
GAGAATCA | -0.186
ATGTTCAC | 0.0173
AGGCGCTG | -0.0252
CCGACATC | 0.0762
GCCGTTTA | -0.132
CCTACGGA | -0.258
CGTTTGTA | 0.17
GAAGTGGC | -0.159
CTCTTCAG | 0.0202
CAACTGCA | -0.0177
AAATACAC | 0.118
GGGCGACC | -0.137
GCGGAACA | 0.0183
CAGCTAGG | -0.232
CACGTCTG | -0.138
ACGTCACA | -0.0545
CGATATAG | 0.0562
CGGTGAAC | -0.0755
AAGACCGG | 0.00993
GTCGTCCA | -0.0295
ACATATGA | 0.0722
CGGACTCC | -0.0951
AGGGTTAG | -0.135
AACCTTGC | -0.0979
CTTTCAAC | 0.0471

Sequence | PBM E-score
CCTCAGGC | -0.0588
ACCCTTAC | -0.0726
CGATAAAA | 0.171
CAACATAA | 0.189
CAAATCGG | 0.109
GTGAGCAC | -0.148
CAGGTGCA | 0.0488
AATGGGAC | -0.0804
CACGATCG | 0.00354
CTTGAGGA | -0.147
ATTATGAC | 0.0915
CGGGACCC | -0.0564
ACCCGTCA | -0.124
AGTGCAAA | 0.101
CTTTGTTA | 0.219
CACGCTCG | -0.0789
AGCGCCCC | -0.033
ACAAGAAC | 0.175
GAGGTAAC | 0.0397
CCGCCATC | -0.158
TATCTACA | 0.0727
CTAATCAG | 0.086
ACGGGGCT | -0.0518
CAGCACAA | -0.0375
GTTGATTA | 0.0985

Sequence | PBM E-score
CTTCTATC | 0.0372
CCGGCCTA | -0.0506
AAGCCAGC | 0.00351
CCGCATTC | -0.0434
ACCACTCA | -0.127
CCTCGCCC | 0.186
CAACCCTA | -0.099
ATAGTCGC | 0.123
CGTGGCTC | -0.314
ATGTGAGA | 0.187
ATTACTCG | 0.0424
ATACTGTG | -0.135
ATCATTAC | 0.152
GTAGCTTA | -0.064
CATCCTCC | -0.123
AGAACTTG | 0.0625
AATGGCTG | -0.00793
CGCGGCCA | 0.0408
GGCGTCAA | 0.154
ACCCGCAT | 0.191
ATTTTGTG | 0.281
CCACAGCG | -0.175
GCCCGCCA | -0.0776
CAGCTTAG | -0.213
ATTTGCAC | -0.248

Sequence | PBM E-score
CTGTCGCA | 0.0809
ATAACGGC | -0.0187
ATTGCTTA | 0.115
ACCAGAAT | 0.025
ACACATCG | -0.0113
CATAAACG | 0.193
GAGTAAGC | -0.0348
ATACTCAC | -0.0618
CGTACATC | -0.0613
ATGAGGGG | 0.0641
GGTGCTAC | -0.125
CCGGATTA | 0.173
AGCGGACC | -0.264
GATTAGAC | -0.00297
GCACATGC | -0.0778
AACCGCAC | -0.0467
CCAACTGC | -0.132
ACAGCGGA | 0.00891
AAGCGGGA | -0.132
CACCGAGA | 0.0186
AGATACAA | 0.135
GGGTCAGA | -0.18
CTCTACAA | 0.0124
TTATATAA | 0.176
GAGCATGC | -0.141

Sequence | PBM E-score
AGCGGCGG | 0.102
AGCATATA | 0.0944
CACAATGG | -0.0649
CATCATTA | 0.221
ACATGAAG | 0.091
CGCCCCAG | 0.0509
CCTTGATC | -0.0305
GAGCCTCC | -0.0549
TAGATGCA | -0.0757
ACTGTTCC | -0.139
ACATATCC | -0.0935
AAGTTAAT | 0.0233
AAATTGTC | 0.268
AAGTCCCG | -0.111
ACGAGAAA | 0.16
AGCTTTGC | -0.0525
AACAGCGG | 0.0491
TCTCGAAA | 0.0747
CGGGCTAG | -0.131
GGTGGAAC | -0.0854
ACGTTACA | 0.164
TGCGGAAA | 0.148
